# About 230 (0.21%) of roughly 110,000 compounds showed an effect of 50% or more. This is one part of the list.
# Target: DPAP1 (Plasmodium falciparum, UniProt Q8IIJ9)
# Assay: primary screen, percent inhibition; read by cleavage of a fluorogenic dipeptide substrate; higher = more effect of the substance
# Parameters: species or system P. falciparum D10 trophozoite lysates; single well
# 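Note: 30 min substrate incubation versus DMSO and 10 µM JCP410 controls.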
# Chain of DPAP1 (Q8IIJ9 whole entry, looked up): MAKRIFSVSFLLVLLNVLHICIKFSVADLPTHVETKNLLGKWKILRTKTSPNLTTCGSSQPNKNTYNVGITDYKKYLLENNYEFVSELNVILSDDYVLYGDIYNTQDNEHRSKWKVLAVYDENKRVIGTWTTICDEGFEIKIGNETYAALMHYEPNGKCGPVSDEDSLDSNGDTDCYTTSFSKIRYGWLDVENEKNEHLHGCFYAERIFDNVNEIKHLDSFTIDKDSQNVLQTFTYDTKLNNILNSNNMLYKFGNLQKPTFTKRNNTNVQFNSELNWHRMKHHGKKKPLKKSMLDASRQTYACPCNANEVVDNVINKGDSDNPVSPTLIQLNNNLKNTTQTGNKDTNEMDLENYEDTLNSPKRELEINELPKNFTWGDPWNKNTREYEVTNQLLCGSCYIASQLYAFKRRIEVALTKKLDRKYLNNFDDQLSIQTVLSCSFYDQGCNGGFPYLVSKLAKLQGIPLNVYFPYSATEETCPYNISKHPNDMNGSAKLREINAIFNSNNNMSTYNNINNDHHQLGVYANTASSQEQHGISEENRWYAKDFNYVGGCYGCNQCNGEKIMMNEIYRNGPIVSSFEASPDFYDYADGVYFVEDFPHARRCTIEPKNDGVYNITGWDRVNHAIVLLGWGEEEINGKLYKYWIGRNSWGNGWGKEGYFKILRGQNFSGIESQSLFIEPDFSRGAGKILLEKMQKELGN
row,Compound,% Inhibition @ 10 uM [%]
1,Cn1c(=O)c2c(n3c4ccccc4nc13)NC(=O)CC2c1ccccc1C(F)(F)F (centres unmarked),1.76
2,CCOc1ccc(-n2cc(-c3ccccc3)c3c(O)ncnc32)cc1,3.59
3,COc1ccccc1OCc1ccc(C(=O)Nc2ccncc2)o1,6.82
4,C=CCN1C(=O)S/C(=C\c2ccc(OC)c(Cl)c2)C1=O,-3.26
5,COc1ccc(Cl)cc1N(CC(=O)NCc1cccnc1)S(C)(=O)=O,21.7
6,CC(C)(CNC(=O)c1ccc(Cl)cc1)CNC(=O)c1ccc(Cl)cc1,0.173
7,Cc1sc2nc3c4ccccc4c(N4CCCCC4)nn3c(=O)c2c1C,-1.36
8,CCN1CCN(S(=O)(=O)c2csc(C(N)=O)c2)CC1,0.0244
9,CC1CN(c2ccc(N(C)C)cc2)C(=O)NC1=O (centres unmarked),9.62
10,COc1cccc2c1Oc1ncccc1N(C(=O)CCC(=O)NCc1ccc3c(c1)OCO3)C2,-7.46
11,COc1ccc(CCNC(=O)c2cc(S(=O)(=O)N3CCCC3)cn2C)cc1OC,3.61
12,c1cc2c(cc1NC1CCCCCC1)OCO2,-1.82
13,Cn1ncc2c(=O)n(Cc3ccccc3Cl)cnc21,2.33
14,O=C(NCC1CCCO1)C1CCN(c2ncnc3c2nc2n3CCCCC2)CC1 (centres unmarked),8.23
15,O=C1C2CCCCC2C(=O)N1c1ccc(Cl)cc1O (centres unmarked),-4.65
16,O=C(c1csc2ccccc12)N1CCN(c2ccccc2F)CC1,3.56
17,CCCC(=O)Nc1ccccc1NC(=O)CCC,5.08
18,CCOC(=O)N1CCN(C(=O)C2CCC(CNS(=O)(=O)c3ccc(Cl)cc3)CC2)CC1 (centres unmarked),0.718
19,CN1CCN(C(=O)C23CC4CC(CC(C4)C2)C3)CC1,-5.5
20,COc1ccc(C(=O)N2CCN(Cc3ccc(C)cc3C)CC2)cc1,-3.5
21,CCCN(CCC)C(=O)c1sc2nc(-c3ccc(OC)cc3)cn2c1C,-5.58
22,CCCCSc1nnc(-c2ccc(Cl)cc2Cl)o1,-5.32
23,O=C(Nc1ccc(CN2CCOCC2)cc1)c1ccc2ccccc2c1,-3.45
24,CCSc1nc2c(c(=O)n(C)c(=O)n2C)n1Cc1ccccc1C,3.46
25,C/C(=N/NC(N)=S)c1cc(C(C)(C)C)cc2c1CCC2(C)C,-3.13
26,Cn1nc(-c2ccccc2F)c2cc(C(=O)NCCCN3CCc4ccccc4C3)sc21,-1.43

row,Compound,% Inhibition @ 10 uM [%]
1,CCn1nc(-c2ccc(C)cc2)nc2c(=O)n(C)c(=O)nc1-2,-2.85
2,Cc1ccc(C2=NN(CC(=O)NCc3cccnc3)C(=O)CC2)cc1,-6.75
3,Cc1ccc(-c2cc(-c3ccccc3)nc(/C(C#N)=C(\N)O)n2)cc1,1.87
4,COc1cc(CN2CCSCC2)cc(OC)c1O,2.33
5,Cc1ccc(C(C)C)c(OCCCn2cnc3ccccc32)c1,-5.92
6,COc1c(C)cccc1C(=O)Nc1ccccc1N1CCN(C(=O)c2ccccc2)CC1,-2.19
7,O=c1c2ccccc2c(-c2ccccc2)nn1-c1ccc(Cl)c(Cl)c1,-8.19
8,CCOc1cc(/C=C2\C(=N)N3N=C(N4CCCC4)SC3=NC2=O)ccc1OCc1ccccc1,0.0579
9,Cc1ccc(C(C)C)c(Oc2ccc(C#N)cc2)c1,4.17
10,O=C(CN1N=C(c2ccccc2)CCC1=O)NC1CC1,2.18
11,CCOc1ccc(CC(=O)N2N=C(C)CC2(O)C(F)(F)F)cc1 (centres unmarked),-8.06
12,O=C(COc1ccccc1)N1CCN(Cc2ccc3c(c2)OCO3)CC1,-6.6
13,COc1ccccc1-c1c(C)nn2c(NCCC3=CCCCC3)cc(C)nc12,-5.58
14,CN(C)Cc1c(O)ccc2[nH]cnc12,6.7
15,Cc1c(C)c2cc(Cl)c3c(c2oc1=O)CN(Cc1ccco1)CO3,-0.808
16,N#CCNC(=O)C(Cc1ccc(C(=O)c2ccccc2)cc1)NC(=O)OCc1ccccc1 (centres unmarked),-1.82
17,CCSc1nnc(-c2ccc(Cl)cc2Cl)o1,34
18,CC1CCN(c2ccc3nnc(CCC(=O)NCc4ccc(F)cc4)n3n2)CC1,-4.02
19,CC(C)N1CCC(N2CCCCC2)CC1,-2.48
20,CC(NC(=O)c1ccco1)c1nc(-c2ccc(Cl)cc2)no1 (centres unmarked),2.41
21,CCC(=O)NCCc1nc2ccccc2n1Cc1ccccc1F,4.77
22,CCN(CC)C(=O)C1CCCN(Cc2ccc(Cl)cc2)C1 (centres unmarked),-0.127
23,Cc1c(CNC(=O)c2cc3nc(-c4ccc5c(c4)OCO5)cc(C(F)(F)F)n3n2)cnn1C,2.49
24,O=C(Nc1ccccc1)N1CCCCCC1,-3.45
25,COc1ccccc1N1CCN(C(=O)c2cc(OC)c(OC)c(OC)c2)CC1,-8.11
26,N#C/C(=C/c1cccnc1)c1nc(-c2ccc(Cl)cc2)cs1,2.45

row,Compound,% Inhibition @ 10 uM [%]
1,COc1ccc2ccccc2c1/C=C1\NC(=S)NC1=O,21.5
2,COc1ccc(CN2CCN(c3cccc(C)c3C)CC2)cc1OC,9.04
3,N#Cc1cnn2c(C(F)(F)F)cc(-c3ccc4ccccc4c3)nc12,-3.63
4,CCOc1ccccc1NC(=O)c1ccccc1F,1.08
5,Cc1ccccc1-c1nc(CS(=O)(=O)CC(=O)N2CCOCC2)c(C)o1,3.19
6,CC(=O)c1c(C)nc2ccccn12,4.26
7,NC(=O)c1cc(S(=O)(=O)NCCN2CCCCCC2)cs1,-0.538
8,N#CCNC(=O)[C@H](Cc1cc(I)c(O)c(I)c1)NC(=O)OCc1ccccc1,1.7
9,N#CCNC(=O)C1CCCCN1S(=O)(=O)c1ccc(-c2ccsc2)cc1 (centres unmarked),1.7
10,Cc1ccnc(NS(=O)(=O)c2ccc(Cl)cc2)c1,-1.42
11,CCCNC(=O)CSc1cn(CC(=O)N2CCOCC2)c2ccccc12,3.74
12,CCC(C)NC(=O)C(Sc1ccccc1)c1ccccc1 (centres unmarked),4
13,O=C1N=C(N2CCOCC2)S/C1=C/c1cc(Br)ccc1O,16.3
14,CC(C)c1ccc(NC(=O)C23CC4CC(C2)CC(n2cncn2)(C4)C3)cc1,0.214
15,Cc1nc(SCC(=O)NC(C)c2ccccc2)[nH]c1Cc1ccc(O)cc1 (centres unmarked),4.31
16,O=C1CCCc2c1[nH]c1ccc(Oc3ccccc3)cc21,2.38
17,O=C(Cc1ccccc1)N1CCN(Cc2ccc(Br)cc2)CC1,-1.04
18,Cc1nc2nc(N3C(=O)c4ccc(C(=O)O)cc4C3=O)nn2c(O)c1Cl,-1.31
19,CCCNC(=O)Cn1ncc2c3ccccc3n(Cc3cc(C)ccc3C)c2c1=O,-7.1
20,Cn1cccc1Cc1nnc(SCC(=O)N2CCCCC2)n1-c1ccccc1,-4.97
21,COc1cc(CNc2ccc3[nH]c(O)nc3c2)cc(Cl)c1OCC(=O)NC1CCCCC1,-4.63
22,CCOc1ccc(-c2cc(CCCC(=O)NCc3ccc4c(c3)OCO4)no2)cc1,-7.13
23,CC1CCN(C(=O)Cn2cnc3c(nnn3Cc3ccc(F)cc3)c2=O)CC1,1.24
24,CC(C)CN1C(=O)c2ccccc2C(C(=O)O)C1c1cccs1 (centres unmarked),-3.31
25,CC(C)CNS(=O)(=O)c1ccc(OCC(=O)N2CCC(C(N)=O)CC2)cc1,3.04
26,CCc1ccc(N2C(=O)C(Cl)=C(N3CCN(C)CC3)C2=O)cc1,0.674

row,Compound,% Inhibition @ 10 uM [%]
1,Cc1nnc2c(N3CCCCC3C)nc3ccccc3n12 (centres unmarked),0.147
2,O=C(NCc1ccco1)c1cc2nc(-c3ccccc3)cc(C(F)(F)F)n2n1,3.25
3,Cc1cc(-c2ccc(NC(=O)C3CC3)c(C)c2)ccc1NC(=O)C1CC1,4.83
4,CCSc1cc(N2CCCC2)nc(-c2ccc(F)cc2)n1,-1.55
5,Cn1c(=O)c2c(-c3ccc(Br)cc3)n(Cc3ccco3)cc2n(C)c1=O,7.04
6,COc1cccc(C(=O)N2CCN(Cc3ccc(OC)c(Br)c3)CC2)c1,-2.34
7,N#CC1(NC(=O)[C@H](CC2CCCCC2)N[C@@H](c2cccc(Br)c2)C(F)(F)F)CC1,-3.14
8,CCC(=O)N1CCN(CC/N=C/C2=C(O)CC(c3ccccc3)CC2=O)CC1 (centres unmarked),-1.07
9,Cc1c(C)n(CC(O)CNC2CCCCC2)c2ccccc12 (centres unmarked),-5.13
10,COC(=O)CC(O)C1CCOC(C)(C)C1 (centres unmarked),-5.28
11,OCCN1CCN(Cc2ccccc2)CC1,-3.04
12,COc1cccc(/C=C2\CC/C(=C\c3cccc(OC)c3OC)C2=O)c1OC,-8.21
13,COc1ccccc1CN1C(=O)c2ccc(C34CC5CC(CC(C5)C3)C4)cc2C1=O,4.74
14,CCCCCn1c(=O)c(C(=O)Nc2ccc(N)cc2)c(O)c2ccccc21,2.46
15,CCOC(=O)c1cc(-c2ccc(F)cc2)n(CC(=O)NC2CCC(C)CC2)c1C (centres unmarked),-1.88
16,O=C1/C(=C/c2ccccn2)N2CCC1CC2,-0.305
17,CC(CNC(=O)CSCc1cnn(-c2ccccc2)c1-n1cccc1)c1ccccc1 (centres unmarked),0.413
18,COC(=O)c1ccc(CSc2n[nH]c(-c3ccncc3)n2)o1,-0.92
19,Cc1cc2oc(C(=O)NC3CCS(=O)(=O)C3)cc(=O)c2cc1C (centres unmarked),-3.24
20,O=C(Nc1nc2ccccc2s1)c1cccc(Br)c1,9.64
21,COc1cc(N)c(Cl)cc1NC(=O)c1ccccc1,4.6
22,O=C(COC(=O)c1ccc(C(O)c2ccccc2)cc1)c1ccccc1 (centres unmarked),2.79
23,COc1ccccc1NC(=O)c1cccs1,-1.77
24,CC12CN3CC(C)(CN(C1)C3c1c(O)ccc3ccccc13)C2 (centres unmarked),-3.64
25,O=C(Cn1cnc2ccc(Cl)cc2c1=O)c1cccs1,0.812
26,Cc1cc(OCC(=O)Nc2ccc(S(=O)(=O)Nc3onc(C)c3C)cc2)ccc1Cl,-3.97

# — article PMC6919601, “Identification of Plasmodium dipeptidyl aminopeptidase allosteric inhibitors by high throughput screening” (PLoS ONE, 2019)
